Measured values published in the RNAGym collection of RNA variant scans (doi:10.7554/elife.90254).
The source gives no read counts; variants with many changes may rest on few reads.

B1: LINE1-full (parent)
chain: UACGUAGGUGGUUUUCCCCUGAUAGUGCUAAGGGGGCCUGGAAGUUUGGACUGGGCAGAGCUCAACACAGCGUGGCAAAGUGGCUGUGGCUAGACUGCCUCUCUGGAUUCCUCGUCACUCAGCAGGGCAUCUCUGAGAGAAAUGCC

Variants of: B1
Assay: self-cleavage, relative activity (ratio to wild type); higher = more cleavage; in vitro, sequencing; the parent is a self-cleaving ribozyme

Variant | self-cleavage
U15A U102A A136G | 0.69
G34A A50G U115C U143C | 1.3
U1C A42U U115C | 0.37
A2G C63U A107C A117C | 0.81
A42G G54U U108C | 1.43
U23C C56U A138G | 0.97
A6G U12A U62C A117G | 0.67
A50G U119A A138G | 0.53
U1A U12C A31C U132C A138G | 1.78
C19U C28G U130C U143A | 1.29
C76U A94G U108C U132C | 0.11
U14C U87C U134C A138G | 0.26
A77G G122U U130A | 2.08
U52C U132C A136G A138U | 0
U73A U108C C133A U134C | 2.47
U39A A69U U130C | 0.05
U46A A77U A138G | 2.02
U9C G34A A64G U102C A142G | 0.27
U9A U81C U85A U134A | 0.13
C19U U20G A43U U96C | 0.26
A24U C61U A69G | 0.04

Variant | self-cleavage
U1C U15C A136G | 0.51
U13C A64C A138G | 0.64
U39A G74A U143A | 1.09
A22G A43C C71A A79G U115C | 0.17
U9A G55A U102A | 0.11
U15C G55A G88A | 0.04
A24U C56U U91A U109A U130C | 0.08
U12A U46C A79G | 0.59
U46A A57U A65G | 0.03
U14C A77G A107G U132C | 1.23
U15C A22G G72A A142G | 0.99
A50U A107U U132C | 1.44
U62C U85A U115A A142G | 0.06
A30G A57U U112A A117U U132C | 0.31
U102A U108A A124G | 1.37
C19U A31U G41A U62C A129U | 0.07
G54U A79G A107U | 0.69
U20C A57U U96C G126A | 0.03
U20C U39A U100A U132C | 0.44
U15A A79G U96C | 0.33
U26C U100C G105A | 1.78

Variant | self-cleavage
A6G U29A A31U C66U A67U | 0.33
U20A U85C U87A | 0.08
C18U G72A A129U | 0.71
G34U U47C A124G | 1.47
C37G A42G A77G | 0.57
U52A A64G U115C | 0.96
C19U U26C G33A A78G U115C C120U U134C | 2.09
A59U U102C U115C | 0.99
U13A A50G U85A U96A | 0.07
U12C U39C U46A A50U U62C U85C | 0
U12C U104A A136G | 0.99
U102C G106U A129G | 1.92
A22G U47A G97A | 0.41
U1C A6G U13C U26C G135A | 1.23
C3U G36U U52G A129U | 0.58
G88A U100C U102C A117G | 0.03
A59U U108C U130C | 1.19
A24G U39C A79G | 1.06
A64U A77G C84U | 0.12
C3U G122A U143G | 1.05
A6G A117U U132A | 0.48

Variant | self-cleavage
G40A U112C U143C | 1.11
U26C A50G A57U U130C | 0
U14C A22U A129C A136G A141G | 0.98
A67U U109C A142G U143A | 0
G32A A79G U85C A117U | 0.16
U12G C98U C113U | 0.1
U12C A92G U112C A117U | 0
U1C U23C A79G | 1.84
U12C U132C A141G | 2.93
U13C U45C A117G | 1.38
U73C A138G A142C | 2.19
U45C C71A U100A | 0.1
U20A U73C G114A | 2.13
U15C A78G U96A A121G G127A | 0.06
U20A U46A A94G A141G | 0
U13C A77U U134A A138G | 0.84
U26C A50U C110U A117G C133A | 1.01
U47C A57U U96C G137U A141G | 0.11
A6G A59G U62A A65G U100A | 0
U13A U96A C99A | 0.07
C99U U104C A129U | 0.93
